Source: ChEMBL document CHEMBL4888484, “Replenishing the malaria drug discovery pipeline: Screening and hit evaluation of the MMV Hit Generation Library 1 (HGL1) against asexual blood stage Plasmodium falciparum ,using a nano luciferase reporter read-out” (2022)
The campaign covered roughly 150,000 compounds. About 540 (0.36%) showed an effect of 50% or more. This is one part of the list.

What follows are molecules tested on Plasmodium falciparum (assay: Primary screen in NF54 nanoGlo assay, in single point, at 2uM, 72h; a lower Z score goes with more inhibition). Conditions: timepoint 72 hour.
Assay type: functional, Erythrocyte

SMILES	% Inhibition [%]	Z score
CC1=NS(=O)(=O)N(CCOc2ccccc2)C=C1c1nc(-c2ccccc2)no1	-1	0.15
O=C(C[C@H]1CCCN1CC(=O)N1CCCCCCC1)c1ccc(F)cc1	-10	1.93
Cc1nc(-c2ccnc(NC(=O)NCCCCO)c2)n[nH]1	-2	0.18
O=C(c1ccc(-c2cc(O)c(F)c(F)c2)cc1)N1C[C@H]2CCC[C@@H](C2)C1	-12	1.62
CCOc1ccc(NC(=O)C2[C@@H]3C=C[C@]4(O3)C(C(=O)NC3CCCCC3C)N(C3CCCCC3)C(=O)[C@H]24)cc1 (stereo partly drawn)	2	-0.36
Cc1noc(C)c1Cc1nc(Cc2cccs2)no1	-12	1.1
CC(=O)c1ccc(C(C)(C)C)cc1NC(=O)C(C)C	34	-0.76
Cc1[nH]ccc1C(=O)Nc1cnn(C(F)F)c1	-8	1.36
CC(C)OCC(=O)N1CCC2(CC1)CC(=O)N(Cc1ccc(F)c(F)c1)C2	-15	1.85
O=C(NC(Cc1ccncc1)[C@H]1C[C@@H](O)C1)c1cnc[nH]c1=O (stereo partly drawn)	-6	0.98
CCNC(=O)C[C@H]1CCc2nn(Cc3cccnc3)c(=O)n2CC1	10	-1.57
CS(=O)(=O)N[C@H]1CCN(C(=O)c2c[nH]nc2-c2ccc(Cl)s2)C1	3	-0.46
C[C@@H](CNCCCN1CCOCC1)c1ccccc1	-21	1.94
O=C(c1ccc(=O)[nH]c1)N1CCC[C@H](Oc2ccncc2)C1	7	-0.99
Cn1nc(-c2cnccn2)cc1CNC(=O)NC(C)(C)C	-6	1.03
CC1CN(CCC2Oc3cccnc3NC2=O)CC(C)O1 (stereo not drawn)	-12	1.4
CCN(C(C)=O)c1nc(-c2ccc(C3CCCCC3)cc2)cs1	-8	1.23
NC(=O)c1cnc2n1CCN(C(=O)Cc1cccs1)C2	4	-0.76
CC(=O)Nc1ccc(C)cc1S(=O)(=O)N1CCC[C@H]1c1cc(C)on1	-3	0.54
C[C@@H](C(=O)N(C)C)N1CCc2[nH]nc(C(c3ccccc3)c3ccccc3)c2C1	2	-0.37
CCC(CC)C(=O)N[C@H]1CO[C@H]2[C@@H]1OC[C@H]2O	22	-3.38

SMILES	% Inhibition [%]	Z score
c1ccc(C[C@]2(c3ccccc3)CCNC2)cc1	38	-1.06
O=C(Cn1ncc(=O)c2ccccc21)Nc1ccc(Cl)cc1	-13	2.42
Cc1nc([C@H](C)N2CCN(C(=O)C(C)(C)C)CC2)oc1-c1ccc(Cl)cc1	-2	0.22
CN(C)c1cccc(S(=O)(=O)Nc2ccc(N(C)C)nc2)c1	-3	0.42
CCOc1ccccc1C(=O)Nc1nnc(CCC(=O)c2ccccc2)s1	-15	1.97
CO[C@H]1C[C@H]2CN(C(=O)c3c[nH]c4ccccc34)CC(=O)N2C1	0	-0.02
Cc1ccc(-c2cc3nc(C)cc(N4CCC(C(=O)N[C@@H](C)c5ccccc5)CC4)n3n2)cc1	6	-0.69
CC(=O)N1CC[C@H](NC(=O)c2ccc3c(c2O)CCCC3)c2ccc(F)cc2C1	-4	0.48
CCCc1nnc(NC(=O)c2cnn(-c3ccc(=O)[nH]n3)c2C(F)(F)F)s1	-2	0.38
CCOc1ccc(NC(=O)Nc2cc(S(=O)(=O)N3CCC(C)CC3)ccc2N2CCC(C)CC2)cc1	-7	1.2
Cc1ccc2c(c1)OCCN2Cc1cnc2cnccn12	-13	2.39
Cc1ccc(F)c(OCC2=NOCC2)c1	-9	1.84
CCc1cc(CNC(=O)Nc2cc(NC(C)=O)c(F)cc2F)on1	-7	1.19
C[C@@H](CO)NC(=O)C(=O)Nc1cc(Br)ccc1F	-9	1.52
CCn1c(C2CCNCC2)nn(Cc2noc(C3CC3)n2)c1=O	4	-0.69
CC1CCCCC1OCC(=O)N(C)CC1CCCC1 (stereo not drawn)	-2	0.47
Fc1cccc(C2(c3nc([C@H]4CCOC4)no3)CCC2)c1	-6	0.6
Cc1cc(C(=O)CN2C(=O)COc3ccc(Cl)cc32)c(C)n1C	0	-0.05
COc1ccnc(C(=O)Nc2cc(C)c(Br)cn2)c1	-7	1.08
COCCCN(Cc1c(C)nn(-c2cccc(F)c2)c1N1CCN(C)CC1)C(=O)CC(C)(C)C	14	-1.58
Cc1cccc(NS(=O)(=O)c2ccc(C)c(C(=O)Nc3ccc(C)c(S(=O)(=O)Nc4ccccc4Cl)c3)c2)c1	-9	1.45

SMILES	% Inhibition [%]	Z score
COc1ccc([C@H]2CCc3nc(C(=O)NCc4ccccc4)cn3C2)c(OC)c1	-6	0.59
COC(=O)c1cc(C)nc2c1c(=O)n(Cc1c(F)cccc1Cl)c(=O)n2-c1ccccc1OC	-1	0.09
CC1CCCCC1NC(=O)C1CCc2cncn2C1 (stereo not drawn)	-11	1.42
Cc1ccccc1O[C@H](C(=O)NCc1n[nH]c(=O)[nH]1)C(C)C	-2	0.29
CCOC(=O)CN(C(=O)c1ccncc1F)C(C)(C)C	-11	1.08
O=C(Cc1cccc(O)c1)N[C@H](c1ccccc1)C1CCOCC1	-3	0.54
COCCc1ccnc(NC(=O)N2CC3(CCOCC3)[C@@H]3CCC[C@@H]32)c1	13	-1.61
CC[C@@H](c1ccccn1)N(C)Cc1ccc(Cl)o1	5	-0.92
COc1ccccc1N(CC(=O)Nc1ccccc1C(=O)NCCc1ccccc1)S(=O)(=O)c1ccc(C)cc1	-14	2.26
Cc1ccc(C(=O)NCCc2cc(F)cc3c2OCOC3)c(O)c1C	0	-0.02
Cc1noc2ncnc(N3CCOC[C@@H]3CC(C)C)c12	-4	0.52
COc1ccc(CCNC(=O)c2csc(CN(Cc3ccc(C)cc3)Cc3ccc(F)cc3)n2)cc1OC	-9	0.91
Cc1ccc(C2CC(C)CCN2S(=O)(=O)c2ccc3c(c2)ncn3C)o1 (stereo not drawn)	-2	0.26
C[C@H](Oc1ccccc1)C(=O)NCc1ccc2c(c1)CCN2C(=O)c1ccccc1	-8	1.48
Cc1cc(C2CCC2)nc(-c2cccc(O)c2)n1	11	-1.45
Cc1ccc(CN(C)C(=O)[C@@H](NS(=O)(=O)c2ccc3ccccc3c2)C(C)C)o1	2	-0.4
COc1cncc(C(NC(=O)c2n[nH]c3c2CCC3)[C@H]2C[C@@H](O)C2)c1 (stereo partly drawn)	-6	0.98
CC1CN(CC2CCCCCC2)CC(C)O1 (stereo not drawn)	-1	0.13
Cn1nc(C(=O)N2CCCCCC2)c(=O)c2ccccc21	-8	0.96
O=C(Cn1cccc1-c1nc(-c2ccc(F)cc2)no1)N1CCCCC1	-5	0.66
COc1cc(N[C@@H](C)c2nc(CC(C)C)no2)ncn1	-11	2.06

SMILES	% Inhibition [%]	Z score
O=C(CCOC1CCOCC1)N1CCC[C@H]1c1ccn[nH]1	-11	2.11
CC(C)c1ncsc1C(=O)N1CCC2(CC1)COC(=O)N2	-8	0.81
CCOc1ccc(CN[C@@H](CC)CO)cc1Cl	-4	0.58
COc1cc(=O)[nH]cc1C(=O)N1CC[C@@](F)(c2ccccc2F)C1	-8	1.53
CN(C)[C@H]1CN(Cc2ccc3ccn(Cc4ccccc4)c3c2)C[C@@H]1O	2	-0.29
CCc1nnnn1Cc1nc(C)cs1	-8	0.85
C[C@@H](Cn1cccn1)C(=O)N(Cc1ccc2c(c1)OCO2)C1CC1	-1	0.2
COc1cccc(-c2nc(S(=O)(=O)c3ccc4c(c3)OCCO4)c(NC3CC3)o2)c1	-19	2.46
COc1ccc(Br)cc1CNC(C)C	-7	1.04
Cc1ccn([C@@H](C)CC(=O)NCc2ccc(C)o2)n1	2	-0.4
O=S(=O)(Nc1cccc2c1CCCC2)c1ccc2c(c1)OCCO2	11	-1.57
O=C(NCC1CCCCCCC1)N1CCC(C(F)(F)F)(C(F)(F)F)C1	-5	0.76
Cc1nccn1-c1c(Cl)cccc1NS(=O)(=O)c1cnc(-c2ccccc2)nc1	-6	0.71
CCn1ncc(CN2CC(Cc3nc(-c4cccnc4)no3)C2)c1C	-14	1.94
Nc1nc(N2CCC(Cc3ccccc3)CC2)n[nH]1	3	-0.34
COc1cccc(CNC(=O)C[C@H]2C(=O)NCCN2C/C=C/c2ccccc2)c1OC	-1	0.19
O=C(Cn1cnc2cc3c(cc21)OCCO3)NCCc1ccc(F)cc1	-4	0.5
CC(=O)N1C[C@H]2CN(C(=O)Cc3cccc(Cl)c3)CC[C@@]2(c2nc(C)n[nH]2)C1	38	-4.26
C[C@H]1CCN1CC(=O)NCc1cccs1	5	-0.96
C[C@@](CO)(NC(=O)NC1CCCCC1)C1CC1	-2	0.27
C[C@H]1CCS(=O)(=O)CCN1C(=O)c1cccc2cnccc12	2	-0.2
